In article PMC5290273 (Nature Communications, 2017) one finds binding data, which are given here for 1 molecule.

Common to all, as to test: co-IP
For experiment [1], the target named is T1, FLAG-AFF4 with double deletion of residues 318–337 and 970–1,163 (human) (UniProt Q9UHB7).
T1 sequence: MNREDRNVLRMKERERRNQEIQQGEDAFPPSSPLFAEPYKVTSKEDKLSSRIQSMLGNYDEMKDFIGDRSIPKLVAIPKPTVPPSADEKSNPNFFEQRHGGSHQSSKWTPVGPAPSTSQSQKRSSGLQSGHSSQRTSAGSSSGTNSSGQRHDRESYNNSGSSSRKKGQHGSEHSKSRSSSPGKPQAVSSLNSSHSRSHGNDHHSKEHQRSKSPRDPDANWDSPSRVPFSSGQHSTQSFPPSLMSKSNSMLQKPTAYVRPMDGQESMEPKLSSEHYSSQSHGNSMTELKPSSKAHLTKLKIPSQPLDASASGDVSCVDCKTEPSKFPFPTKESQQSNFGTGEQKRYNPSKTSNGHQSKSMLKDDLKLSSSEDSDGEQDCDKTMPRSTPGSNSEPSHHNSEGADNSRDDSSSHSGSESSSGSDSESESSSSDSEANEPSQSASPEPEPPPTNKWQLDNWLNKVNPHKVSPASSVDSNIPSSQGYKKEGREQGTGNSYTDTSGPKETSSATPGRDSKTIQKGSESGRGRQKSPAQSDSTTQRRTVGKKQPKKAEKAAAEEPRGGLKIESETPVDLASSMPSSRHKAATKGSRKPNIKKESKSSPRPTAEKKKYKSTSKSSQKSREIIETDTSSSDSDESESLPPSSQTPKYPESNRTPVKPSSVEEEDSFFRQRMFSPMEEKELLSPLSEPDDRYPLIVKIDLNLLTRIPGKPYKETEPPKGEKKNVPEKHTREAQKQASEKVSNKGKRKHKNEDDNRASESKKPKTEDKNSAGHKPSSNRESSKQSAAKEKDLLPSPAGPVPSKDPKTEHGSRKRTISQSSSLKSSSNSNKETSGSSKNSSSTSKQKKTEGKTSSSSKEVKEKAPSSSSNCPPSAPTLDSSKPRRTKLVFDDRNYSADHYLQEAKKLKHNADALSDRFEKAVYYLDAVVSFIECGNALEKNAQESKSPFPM

Experiment [2] has as its target T2, FLAG-AFF4 Δ970–1,163 F345D (human) (UniProt Q9UHB7).
T2 sequence: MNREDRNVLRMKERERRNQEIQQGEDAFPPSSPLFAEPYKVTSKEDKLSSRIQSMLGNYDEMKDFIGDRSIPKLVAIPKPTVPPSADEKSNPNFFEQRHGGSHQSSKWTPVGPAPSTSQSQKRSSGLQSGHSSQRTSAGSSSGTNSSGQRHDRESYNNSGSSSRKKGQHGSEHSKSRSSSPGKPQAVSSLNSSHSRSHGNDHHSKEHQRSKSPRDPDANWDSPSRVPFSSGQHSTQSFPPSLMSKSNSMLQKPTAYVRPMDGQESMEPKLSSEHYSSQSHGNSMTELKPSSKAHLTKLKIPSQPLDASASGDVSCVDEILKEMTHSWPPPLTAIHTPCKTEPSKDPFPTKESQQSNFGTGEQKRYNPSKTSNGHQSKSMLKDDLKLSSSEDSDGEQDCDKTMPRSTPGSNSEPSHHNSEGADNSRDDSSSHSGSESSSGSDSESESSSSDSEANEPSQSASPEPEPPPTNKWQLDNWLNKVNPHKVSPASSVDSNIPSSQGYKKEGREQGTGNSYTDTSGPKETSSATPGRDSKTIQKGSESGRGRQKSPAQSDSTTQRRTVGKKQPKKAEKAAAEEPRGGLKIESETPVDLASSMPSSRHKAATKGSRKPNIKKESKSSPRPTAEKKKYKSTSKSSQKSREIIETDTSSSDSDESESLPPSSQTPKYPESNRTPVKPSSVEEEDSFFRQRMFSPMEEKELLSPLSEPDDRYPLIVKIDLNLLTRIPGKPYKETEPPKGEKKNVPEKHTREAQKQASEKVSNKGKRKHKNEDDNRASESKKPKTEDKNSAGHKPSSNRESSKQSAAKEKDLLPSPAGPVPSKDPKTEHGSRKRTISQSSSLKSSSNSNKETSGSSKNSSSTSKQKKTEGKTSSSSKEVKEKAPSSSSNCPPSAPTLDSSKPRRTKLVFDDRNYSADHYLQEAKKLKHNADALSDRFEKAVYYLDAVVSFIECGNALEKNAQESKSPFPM

Experiment [3] addresses T3, FLAG-AFF4 Δ970–1,163 P329G (human) (UniProt Q9UHB7).
T3 sequence: T2 sequence with P329G, D345F

Residue numbers refer to the chain shown, from its start. No constants are given. Whether binding was seen depends on the method and setting. Binding seen in cells or lysates may run through a third protein. Some results given as binding are weak or reduced against the parent protein; the word gives no strength. Sequences can lack the tags named with a protein.

B1: ELL1, endogenous (protein, UniProt P55199 1-621)
chain: MAALKEDRSYGLSCGRVSDGSKVSVFHVKLTDSALRAFESYRARQDSVSLRPSIRFQGSQGHISIPQPDCPAEARTFSFYLSNIGRDNPQGSFDCIQQYVSSHGEVHLDCLGSIQDKITVCATDDSYQKARQSMAQAEEETRSRSAIVIKAGGRYLGKKVQFRKPAPGATDAVPSRKRATPINLASAIRKSGASAVSGGSGVSQRPFRDRVLHLLALRPYRKAELLLRLQKDGLTQADKDALDGLLQQVANMSAKDGTCTLQDCMYKDVQKDWPGYSEGDQQLLKRVLVRKLCQPQSTGSLLGDPAASSPPGERGRSASPPQKRLQPPDFIDPLANKKPRISHFTQRAQPAVNGKLGVPNGREALLPTPGPPASTDTLSSSTHLPPRLEPPRAHDPLADVSNDLGHSGRDCEHGEAAAPAPTVRLGLPLLTDCAQPSRPHGSPSRSKPKKKSKKHKDKERAAEDKPRAQLPDCAPATHATPGAPADTPGLNGTCSVSSVPTSTSETPDYLLKYAAISSSEQRQSYKNDFNAEYSEYRDLHARIERITRRFTQLDAQLRQLSQGSEEYETTRGQILQEYRKIKKTNTNYSQEKHRCEYLHSKLAHIKRLIAEYDQRQLQAWP
With B1, the binding entry in experiment [1] is “no binding”; in experiment [2] it was “binds”; in experiment [3], “no binding”.
